{"source": "ChEMBL document CHEMBL4888484", "about": "“Replenishing the malaria drug discovery pipeline: Screening and hit evaluation of the MMV Hit Generation Library 1 (HGL1) against asexual blood stage Plasmodium falciparum ,using a nano luciferase reporter read-out” (2022)", "note": "Out of some 150,000 compounds screened, about 540 (0.36%) showed an effect of 50% or more. Some of the results follow.", "data": [{"system": "Plasmodium falciparum", "test": "Primary screen in NF54 nanoGlo assay, in single point, at 2uM, 72h; a lower Z score goes with more inhibition", "format": "functional, Erythrocyte", "conditions": "timepoint 72 hour", "units": {"% Inhibition": "%"}, "values": [{"smiles": "CC(C)NC(=O)N1CCN(c2ccc(Cl)c(NC(=O)CN(C(=O)c3ccccc3Cl)C(C)C)c2)CC1", "% Inhibition": -13, "Z score": 1.19}, {"smiles": "COCCOc1cc(=O)n2c(c1C(=O)NCc1ccccc1)CCOCC2", "% Inhibition": -15, "Z score": 1.47}, {"smiles": "COc1c(C(=O)OCc2nc(C)cs2)c(C)nn1C", "% Inhibition": -10, "Z score": 1.55}, {"smiles": "Cc1cc(O)c([C@]2(C(F)(F)F)NCCNC2=O)cc1C", "% Inhibition": -8, "Z score": 1.03}, {"smiles": "O=C(NCc1cc(-c2cccs2)on1)C1CCCCC1", "% Inhibition": -5, "Z score": 0.66}, {"smiles": "COc1cccc(C2CN(C(=O)NC(C)(C)C)CC2C(=O)N(C)Cc2ccccc2)c1", "note": "(configuration not stated)", "% Inhibition": -18, "Z score": 2.18}, {"smiles": "CCc1ncnc(NCC2(n3cccn3)CC2)c1F", "% Inhibition": 2, "Z score": -0.35}, {"smiles": "Cc1nnc(CN(C)CCc2nc3ccccc3[nH]2)s1", "% Inhibition": 0, "Z score": -0.03}, {"smiles": "Nc1cc(-c2cccc(OCc3ccccc3)c2)n[nH]1", "% Inhibition": -25, "Z score": 2.98}, {"smiles": "CN(Cc1ccccc1)c1c(Cl)cnc(C(=O)O)c1Cl", "% Inhibition": 9, "Z score": -1.06}, {"smiles": "FC(F)Oc1ccc2c(c1)CCC[C@@H]2NC1CCOCC1", "% Inhibition": -8, "Z score": 1.01}, {"smiles": "COc1ccc(CCN2C(=O)CNC23CCN(C(=O)C2CCC2)CC3)cc1OC", "% Inhibition": 3, "Z score": -0.49}, {"smiles": "CCOC(=O)c1cc(-c2ccccc2)n(-c2cccc(C(=O)NCCc3ccc(C)cc3)c2)c1C", "% Inhibition": 10, "Z score": -1.14}, {"smiles": "Cc1cc(OCCON2C(=O)CCC2=O)c(C)cc1Cl", "% Inhibition": -13, "Z score": 1.76}, {"smiles": "Cn1nccc1CCNC(=O)Nc1ccc(F)cn1", "% Inhibition": -11, "Z score": 1.82}, {"smiles": "CCN(CC)c1onc(-c2ccccc2)c1CN(Cc1ccccc1)C(=O)c1ccccc1C", "% Inhibition": -24, "Z score": 2.15}, {"smiles": "CCC(C)(C)NS(=O)(=O)c1ccc(-c2cc(C(F)(F)F)on2)o1", "% Inhibition": -18, "Z score": 3.06}, {"smiles": "Cc1c(CNC2CCCC2)c(C(=O)O)c(C)n1Cc1ccc(F)cc1Cl", "% Inhibition": -12, "Z score": 2.18}, {"smiles": "Cc1cc(=O)[nH]c(NC[C@]23CC[C@H]2CCCN3C(=O)OC(C)(C)C)n1", "% Inhibition": 21, "Z score": -2.71}, {"smiles": "CCC(NC(=O)C1C2CCCCC21)c1cnn(CC)c1", "note": "(configuration not stated)", "% Inhibition": -6, "Z score": 0.5}, {"smiles": "CCOc1cc(CN2CCC[C@H]2c2c(C)noc2CC)ccc1O", "% Inhibition": -12, "Z score": 1.61}, {"smiles": "O=C(O)[C@H]1CN(C(=O)C2CCCCC2)C[C@@H]1C1CC1", "% Inhibition": -18, "Z score": 3.1}, {"smiles": "Cc1n[nH]c(C)c1CNCC1(N2CCOCC2)CCCCC1", "% Inhibition": -7, "Z score": 1.47}, {"smiles": "O[C@@H](Cc1ccc(C(F)(F)F)cc1)Cn1cnnc1", "% Inhibition": 5, "Z score": -0.93}, {"smiles": "COc1ccc2c(c1)CC[C@H](C(=O)Nc1nnn(C)c1C(F)F)C2", "% Inhibition": -3, "Z score": 0.66}, {"smiles": "CCC(C)C(C)N(C(=O)c1cncn1C)C1CC1", "note": "(configuration not stated)", "% Inhibition": -3, "Z score": 0.31}, {"smiles": "Cc1cc(F)cc(S(=O)(=O)N2CCN3CCOC[C@]3(CO)C2)c1", "% Inhibition": -6, "Z score": 1.11}, {"smiles": "CCOc1ccc(S(=O)(=O)N2CCC[C@H](C(=O)NCCN3CCOCC3)C2)cc1Cl", "% Inhibition": -11, "Z score": 1.31}, {"smiles": "COCc1ccc(C(=O)N[C@@H](C)c2cnn(-c3ccccc3C)c2C)o1", "% Inhibition": -15, "Z score": 1.28}, {"smiles": "Cc1cc(C)nc(N[C@H]2C[C@@](C)(O)C2)n1", "% Inhibition": 12, "Z score": -1.5}, {"smiles": "O=C(NCc1cccnc1OCC(F)F)c1ccn2ccnc2c1", "% Inhibition": 1, "Z score": -0.26}, {"smiles": "O=C(NC1CC1)C1CCCN(C(=O)c2cccc(C(=O)N3CCCC(C(=O)NC4CC4)C3)n2)C1", "note": "(configuration not stated)", "% Inhibition": -2, "Z score": 0.3}, {"smiles": "O=C1NC[C@@H](O)CC12CCN(CCCc1ccc(Cl)cc1)CC2", "% Inhibition": -18, "Z score": 2.26}, {"smiles": "Cn1cc(C(NC(=O)CCc2c[nH]c3ccccc23)[C@H]2C[C@H](O)C2)cn1", "note": "(some centres not stated)", "% Inhibition": 5, "Z score": -0.74}, {"smiles": "CC(C)(C(=O)N1CC(C(F)F)C1)C1CCC1", "% Inhibition": -11, "Z score": 1.14}, {"smiles": "O=C(Nc1cnc2c(F)c(F)ccc2c1)c1c(C(F)F)nc2n1CCCC2", "% Inhibition": -13, "Z score": 2.38}, {"smiles": "O=C1N(Cc2ccccc2)C(=O)C2(CCNCC2)N1CCc1ccccc1", "% Inhibition": 10, "Z score": -1.29}, {"smiles": "CO[C@H]1CCCN(C(=O)NC2CCN(Cc3ccccc3)CC2)C1", "% Inhibition": -7, "Z score": 1.12}, {"smiles": "Cc1cc(Cn2c(C(F)(F)F)ccc(C(N)=O)c2=O)no1", "% Inhibition": 30, "Z score": -3.36}, {"smiles": "O=S(=O)(Nc1nc2ccccc2nc1Nc1ccc2ccccc2c1)c1cccs1", "% Inhibition": 24, "Z score": -2.72}, {"smiles": "O=C(NCc1ccco1)[C@@]12CCCC[C@H]1N(C1CC1)S(=O)(=O)CC2", "% Inhibition": -16, "Z score": 1.9}, {"smiles": "Cc1csc(CCNC(=O)CC2(N3Cc4ccccc4C3=O)CCCCC2)n1", "% Inhibition": -18, "Z score": 2.6}, {"smiles": "CCCCOC(=O)N1CCC[C@@]2(CCC(=O)N(Cc3ccncc3)C2)C1", "% Inhibition": 7, "Z score": -0.92}, {"smiles": "CCc1ccc(Cn2nc(C[C@@H](C)CC)nc2C2(CO)CC2)cc1", "% Inhibition": -7, "Z score": 1.29}, {"smiles": "CCN(Cc1cnn(C)c1)c1ccc(C(=O)OC)nn1", "% Inhibition": 6, "Z score": -0.72}, {"smiles": "Cc1cc(CNC(=O)c2ccc3c(c2)OCCO3)nn1C", "% Inhibition": -6, "Z score": 0.96}, {"smiles": "CN1CCc2[nH]c3ccc(S(=O)(=O)N(C)C)cc3c2C1", "% Inhibition": -3, "Z score": 0.41}, {"smiles": "CCc1ccccc1NC(=O)CN1CCN(c2nnc(C)s2)CC1", "% Inhibition": -3, "Z score": 0.5}, {"smiles": "Cc1cccc(Cn2c(C)c(C)c(C)c2C(=O)Nc2cccc(F)c2)c1", "% Inhibition": -5, "Z score": 0.98}, {"smiles": "CCc1ccsc1C(=O)N1CC[C@@H](O)C1", "% Inhibition": -14, "Z score": 2.32}, {"smiles": "CC(CNC(=O)N(C)CCc1cccs1)N1CCOCC1C", "note": "(configuration not stated)", "% Inhibition": 5, "Z score": -0.94}, {"smiles": "CC1=C(Cc2cn(CCN3CCOC3=O)nn2)C(C)(C)CCC1", "% Inhibition": 11, "Z score": -1.46}, {"smiles": "O=C(NC1CC1)N1CCN(Cc2cn3cc(Cl)ccc3n2)CC1", "% Inhibition": 0, "Z score": 0.08}, {"smiles": "O=C(NC1CCCCC1)c1cccc(Oc2cc(-c3ccc(F)cc3)ncn2)c1", "% Inhibition": -15, "Z score": 1.91}, {"smiles": "O=C(Nc1ccc(N2CCCCCC2)cc1C(=O)O)c1ccc(F)cc1", "% Inhibition": 0, "Z score": 0.05}, {"smiles": "CCOc1cc(C#N)c(Br)cc1O", "% Inhibition": -11, "Z score": 1.31}, {"smiles": "COCCOc1ccnc(-c2noc([C@@H]3CCCN3Cc3ccc(C(F)(F)F)cc3)n2)c1", "% Inhibition": 32, "Z score": -3.6}, {"smiles": "O=C(Nc1nc(-c2c(F)cccc2F)cs1)c1ccc2c(c1)COC2", "% Inhibition": 0, "Z score": 0.01}, {"smiles": "N#Cc1nccnc1N1CCc2ccccc21", "% Inhibition": -10, "Z score": 1.47}, {"smiles": "Cc1ccc(-c2cc3n(n2)CCC(=O)N3CC(=O)N2CCN(c3ccccn3)CC2)cc1", "% Inhibition": -4, "Z score": 0.36}, {"smiles": "CCCn1cc(NC(=O)N2CCC[C@]2(C)Cc2cccs2)cn1", "% Inhibition": 16, "Z score": -1.82}, {"smiles": "O=C(NC1CC1)N1CC2OCCN(Cc3ccccc3)C2C1", "note": "(configuration not stated)", "% Inhibition": 2, "Z score": -0.25}, {"smiles": "O=C(c1cn[nH]c1)N1CCC[C@H]1c1nnc(C2CCOCC2)[nH]1", "% Inhibition": -11, "Z score": 2.08}, {"smiles": "O=C(C[C@@H]1CCNC[C@@H]1Cc1cc(COc2ccccc2)on1)NCc1cccnc1", "% Inhibition": 2, "Z score": -0.39}, {"smiles": "COc1ccc(CCNc2cc(C)nc3c(C)c(-c4ccccc4)nn23)cc1OC", "% Inhibition": -12, "Z score": 2.3}, {"smiles": "COc1nc(C)c(NC(=O)OC(C)(C)C)s1", "% Inhibition": 10, "Z score": -1.42}, {"smiles": "Cc1cccc(O)c1NC(=O)c1scnc1C1CC1", "% Inhibition": 6, "Z score": -0.66}, {"smiles": "Cc1nc(-c2cc(S(=O)(=O)N3CCc4ccccc4C3)c(C)s2)sc1C", "% Inhibition": -11, "Z score": 1.31}, {"smiles": "O[C@H](CN1CCOCC1)Cn1cnc2ccccc21", "% Inhibition": 33, "Z score": -3.79}, {"smiles": "C[C@@H](Cn1ccnc1)C(=O)N1CCC(Cc2cc(F)ccc2F)CC1", "% Inhibition": -4, "Z score": 0.71}, {"smiles": "CC[C@H]1CN(CCn2cc(CNCc3ccccc3C)c(C)n2)CCO1", "% Inhibition": 0, "Z score": -0.05}, {"smiles": "O=C(O)[C@H]1CCCN(C2CCN(Cc3ccccc3)CC2)C1", "% Inhibition": -13, "Z score": 1.5}, {"smiles": "Cn1ccnc1-c1ccc(C(=O)NC2CCOCC2)cc1", "% Inhibition": -12, "Z score": 1.16}, {"smiles": "CCOc1ncccc1CNC(=O)N1CCC(c2ccc3cccnc3n2)CC1", "% Inhibition": -9, "Z score": 1.01}, {"smiles": "Cc1n[nH]c(C)c1CC(=O)Nc1ccc2c(c1)CCC2", "% Inhibition": -1, "Z score": 0.12}, {"smiles": "CC(C)O[C@H]1CN(Cc2ccc(Cl)o2)C[C@@H]1O", "% Inhibition": 1, "Z score": -0.19}, {"smiles": "Cc1cc(CN(C)C2CCN(c3ncc4ccc(F)cc4n3)CC2)no1", "% Inhibition": 2, "Z score": -0.22}, {"smiles": "O=C(NCCN1CCOCC1)c1nnc(-c2ccncc2)o1", "% Inhibition": -2, "Z score": 0.32}, {"smiles": "c1ccc(-c2nnc([C@H]3CCN(Cc4ccc5c(c4)OCO5)C3)o2)cc1", "% Inhibition": -13, "Z score": 1.69}, {"smiles": "CCc1cc(Cl)ccc1NC(=O)NC[C@@H]1C[C@H](F)CN1", "% Inhibition": 5, "Z score": -0.6}, {"smiles": "CC(=O)N1CCCN(S(=O)(=O)c2ccc(F)cc2F)CCNC(=O)[C@@H]2CCC[C@@H]21", "% Inhibition": 35, "Z score": -3.92}, {"smiles": "CC(C)(C)C(=O)N1CCC(CN(CC(N)=O)C2CCCC2)CC1", "% Inhibition": -2, "Z score": 0.17}, {"smiles": "CC(C)Cc1ccc(CN2C[C@@H]3CC[C@H]2CN(C)C3)s1", "% Inhibition": -3, "Z score": 0.56}, {"smiles": "CNC(=O)C1CCCC1NC(C)C(=O)NCc1cccs1", "note": "(configuration not stated)", "% Inhibition": -9, "Z score": 0.83}, {"smiles": "Cc1cn(C)nc1CNC[C@](C)(O)C1CC1", "% Inhibition": 21, "Z score": -2.65}, {"smiles": "COCCOCCN(C)CCCc1ccc(OC)cc1", "% Inhibition": -7, "Z score": 0.59}]}]}
